In all, about 16,000 compounds went through this assay and about 120 (0.75%) were called active. Not shown: some 4% with an inconclusive outcome. The call rests on the fitted dose curve; in most records, active means well fitted inhibition curve with a large enough effect; inconclusive means small, poorly fitted or top-dose-only effect; inactive means no such curve, though single readings can be large or run the other way. This is one part of the list.

The values that follow come from PubChem BioAssay AID1645882 (National Center for Advancing Translational Sciences (NCATS), 2021).

This test addresses Rap guanine nucleotide exchange factor 3 (Homo sapiens) (UniProt O95398). Nature of the test: Validation qHTS for antagonist of cAMP-regulated guanine nucleotide exchange factor 3 (EPAC1).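 Further: plate controls were DMSO for no effect and ATA control for full effect; nearly all actives have a fitted effect of over 75% in size.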 Conditions: EPAC1 Rap1B-BODIPY-GDP exchange, fluorescence; series mostly up to 150 µM; activity change, negative = inhibition: at the top concentration. Summed up: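 EPAC1 (100 nM) mixed with 250 nM RAP1B-BODIPY-GDP and 50 uM GDP; compounds in concentration series, 5 min at room temperature. Fluorescence (ex 480/em 540 nm) read every 5 min for 30 min; normalized to ATA control and DMSO.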
Chain of UniProt O95398 (O95398 whole entry, looked up): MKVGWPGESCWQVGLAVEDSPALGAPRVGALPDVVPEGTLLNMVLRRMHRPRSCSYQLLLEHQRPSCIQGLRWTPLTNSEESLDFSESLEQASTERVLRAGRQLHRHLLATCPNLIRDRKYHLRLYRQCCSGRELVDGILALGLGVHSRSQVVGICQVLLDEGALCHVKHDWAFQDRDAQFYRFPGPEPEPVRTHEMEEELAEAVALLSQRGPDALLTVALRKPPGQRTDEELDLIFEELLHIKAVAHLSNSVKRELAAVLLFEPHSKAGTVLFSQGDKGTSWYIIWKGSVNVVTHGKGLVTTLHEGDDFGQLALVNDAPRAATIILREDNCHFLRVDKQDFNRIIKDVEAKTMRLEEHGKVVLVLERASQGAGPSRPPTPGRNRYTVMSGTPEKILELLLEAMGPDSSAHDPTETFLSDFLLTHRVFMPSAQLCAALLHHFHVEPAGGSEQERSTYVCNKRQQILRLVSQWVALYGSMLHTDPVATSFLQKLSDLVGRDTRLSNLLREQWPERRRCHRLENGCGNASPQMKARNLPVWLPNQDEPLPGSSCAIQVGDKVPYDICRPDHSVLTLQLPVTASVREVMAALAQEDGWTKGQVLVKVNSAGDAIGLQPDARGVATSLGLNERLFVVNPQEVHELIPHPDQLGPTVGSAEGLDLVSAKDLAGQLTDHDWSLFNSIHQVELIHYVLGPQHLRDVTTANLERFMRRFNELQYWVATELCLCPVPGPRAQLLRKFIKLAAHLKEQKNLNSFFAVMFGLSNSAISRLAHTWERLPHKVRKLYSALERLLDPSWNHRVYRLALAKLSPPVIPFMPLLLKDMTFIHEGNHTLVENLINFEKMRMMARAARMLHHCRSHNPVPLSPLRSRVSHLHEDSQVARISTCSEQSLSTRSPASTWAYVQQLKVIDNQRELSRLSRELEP
`CCN(CCCCOC(=O)c1ccc(OC)c(OC)c1)C(C)Cc1ccc(OC)cc1` (centres undefined): the activity change, negative = inhibition result was “inactive”.

On to `CCC(C)C(=O)OC1CC(C)C=C2C=CC(C)C(CCC3CC(O)CC(=O)O3)C21` (centres undefined), for which the “activity change, negative = inhibition” value was inactive: 16%.

Take `O=P(O)(O)C(O)(Cn1ccnc1)P(=O)(O)O`: the “activity change, negative = inhibition” value is inactive: 14.8%.

`CC(C)CN1CCCC2(CCN(C(=O)c3cccn3C)CC2)C1`: the “activity change, negative = inhibition” value was inactive: 11.4%.

Regarding `O=C(c1cc(O)c(O)c([N+](=O)[O-])c1)c1ccccc1F`, the “activity change, negative = inhibition” value is inactive: 17.4% [at 75.8 µM].

Take `O=c1nc2ccccc2c2n1CC(CN1CCN(c3ccccc3)CC1)N2` (centres undefined): the “activity change, negative = inhibition” value is inactive: -12.1%.

As for `Nc1nc2c(cnn2CCc2ccccc2)c2nc(-c3ccco3)nn12`, the “activity change, negative = inhibition” value was inactive: -10.4% [at 75.8 µM].

As for `COc1cccc(Cn2c(=O)c(C)nc3cnc(Oc4cccc(Cl)c4)nc32)c1`, the “activity change, negative = inhibition” value is inactive: 2.49%.

`O=C(Nc1cccc(F)c1)N1CC2(CCN(C(=O)c3csnn3)CC2)C1`: the “activity change, negative = inhibition” value is inactive: 5.68%.

As for `O=C(NCC1Cc2cccc(-c3ncccn3)c2O1)C1CCOC1` (centres undefined), the “activity change, negative = inhibition” value is inactive: 11.4%.

Take `O=C(CCn1cncn1)NCC1Cc2cc(-c3ccsc3)cc(Cl)c2O1` (centres undefined): the “activity change, negative = inhibition” value is inactive: 3.4%.

For `Cc1oc(-c2ccccc2NC(=O)C2CCC2)nc1CNC(=O)c1cccc(C(F)(F)F)c1`, the “activity change, negative = inhibition” value was inactive: -7.55%.

Take `CC(NC(=O)c1cccnc1)c1nnc2n1CCN(Cc1ccc(-c3ccccc3)cc1)CC2` (centres undefined): the “activity change, negative = inhibition” value is inactive: 6.32%.

For the compound `COc1ccc2c(c1)c(CC(=O)O)c(C)n2C(=O)c1ccccc1`, the “activity change, negative = inhibition” value is inactive: 8.86% [at 75.8 µM].

Consider `COc1ccc(-n2c(=O)c(C)nc3cnc(N4CCNCC4)nc32)cc1`, for which the “activity change, negative = inhibition” value is inactive: 22.7%.

For the compound `COc1cc(-c2cc(=O)c3ccccc3o2)ccc1O`, the “activity change, negative = inhibition” value is inactive: 5.27%.

`NC[C@H]1O[C@H](O[C@H]2[C@H](O)[C@@H](O[C@H]3O[C@H](CO)[C@@H](O)[C@H](N)[C@H]3O)[C@H](N)C[C@@H]2N)[C@H](N)C[C@@H]1O`: the “activity change, negative = inhibition” value was inactive: 19.8% [at 75.8 µM].

For `CC(=O)N1CCC2(CCCN(c3ncccn3)C2)CC1`, the “activity change, negative = inhibition” value was inactive: 3.82%.

In the case of `C=CCOc1ccccc1OCC(O)CNC(C)C` (centres undefined), the “activity change, negative = inhibition” value was inactive: 15.2% [at 75.8 µM].

Take `O=C(O)C1(O)C[C@H](O)C(O)[C@@H](O)C1` (some centres undefined): the “activity change, negative = inhibition” value was inactive: 6.42%.

Regarding `CN(C)c1ncc2nc(CCc3ccccc3)c(=O)n(-c3ccccc3)c2n1`, the “activity change, negative = inhibition” value was inactive: 23.4%.

For `Cc1c(N)c(=O)n(-c2ccccc2)n1C`, the activity change, negative = inhibition entry was “inactive”.

As for `COc1cccc(CNC(=O)c2c(OC)cc(=O)n3c2CCN(C(=O)c2csc(C)n2)CC3)c1`, the “activity change, negative = inhibition” value is inactive: 4.82%.

For `C(=C\c1ccnc2ccccc12)/c1ccnc2ccccc12`, the “activity change, negative = inhibition” value was inactive: 16.2%.

For `COc1ccc2c3c1O[C@H]1C[C@H](O)C=C[C@@]31CCN(C)C2`, the “activity change, negative = inhibition” value was inactive: -4.36%.

Regarding `O=C(O)c1ccc[n+]([O-])c1`, the “activity change, negative = inhibition” value is inactive: 4.87%.

Consider `COC(=O)N1CCC[C@@]2(CCN(c3ccccn3)C2)C1`, for which the “activity change, negative = inhibition” value is inactive: 9.17%.

Take `CCCCNC(=O)NS(=O)(=O)c1ccc(N)cc1`: the “activity change, negative = inhibition” value was inactive: 16.5%.

For `CCOC(=O)/C=C(C)/C=C/C=C(C)/C=C/c1c(C)cc(OC)c(C)c1C`, the “activity change, negative = inhibition” value was inactive: -2.3%.

Turning to `C#CCN(Cc1ccccc1)S(=O)(=O)C=C`, the “activity change, negative = inhibition” value is inactive: 1.14%.

For the compound `CCNc1ncc2nc(-c3cccs3)c(=O)n(-c3ccc(OC)cc3)c2n1`, the “activity change, negative = inhibition” value was inactive: 38.2%.

Consider `FC(F)(F)c1ccccc1-c1nc(-n2ccnc2)c2ccccc2n1`, for which the “activity change, negative = inhibition” value was inactive: -12.9%.

Regarding `C[C@@H]1[C@H](c2ccccc2)OCCS(=O)(=O)N1Cc1ccccc1`, the “activity change, negative = inhibition” value is inactive: 6.32%.

As to `COC(=O)N1CCC2(CCN(Cc3ccc(C#N)cc3)CC2)CC1`, the “activity change, negative = inhibition” value was inactive: 8.08%.

For `COc1c(Cl)ccc(Cl)c1C(=O)O`, the “activity change, negative = inhibition” value was inactive: -16.8%.

As to `CC1CN(c2cc3c(cc2F)c(=O)c(C(=O)O)cn3-c2ccc(F)cc2F)CCN1` (centres undefined), the “activity change, negative = inhibition” value is inactive: 32.7%.

Consider `Cc1ccccc1Cc1nc2cccnc2n1C1CCN(C(=O)CC2NC(=O)c3ccccc32)CC1` (centres undefined), for which the “activity change, negative = inhibition” value was inactive: 15.7%.

For the compound `CC1(C)S[C@@H]2C(C(=O)OCc3ccccc3)NC(=O)N2C1C(=O)OCc1ccccc1` (some centres undefined), the “activity change, negative = inhibition” value is inactive: -3.32%.

For the compound `O=c1cnc2cncnc2n1Cc1ccc(F)cc1`, the “activity change, negative = inhibition” value is inactive: 16.3%.

As for `C/C=C(\C)C(=O)OC1[C@@H]2C=C3C4CC(=O)OC(c5ccoc5)[C@]4(C)CCC3[C@@](C)(C2=O)C(C(O)C(=O)OC)C1(C)C` (some centres undefined), the “activity change, negative = inhibition” value was inactive: -1.7%.

Consider `CN(C(=O)CN(CCO)CC(=O)N(C)C(C)(C)Cc1ccccc1)C(C)(C)Cc1ccccc1`, for which the activity change, negative = inhibition result was “inactive”.

On to `COC(=O)N/N=C/c1c[n+]([O-])c2ccccc2[n+]1[O-]`, for which the “activity change, negative = inhibition” value is inactive: -7.84%.

Take `COc1ccc2c(c1)CCc1cnc(-n3ncc(C(=O)NCc4cc(C)no4)c3C3CC3)nc1-2`: the “activity change, negative = inhibition” value was inactive: 1.22%.

Consider `O=S(O)CO`, for which the “activity change, negative = inhibition” value was inactive: 11.2%.

Turning to `CO[C@H]1C=CO[C@@]2(C)Oc3c(C)c(O)c4c(O)c(c(C=NN5CCN(C)CC5)c(O)c4c3C2=O)NC(=O)C(C)=CC=C[C@H](C)[C@H](O)[C@@H](C)[C@@H](O)[C@@H](C)[C@H](OC(C)=O)[C@H]1C`, the “activity change, negative = inhibition” value is inactive: 11% [at 39.6 µM].

`CC(C)C(=O)NCC1CCC2(CCN(Cc3ccc(-c4ccccc4Cl)o3)CC2)O1` (centres undefined): the “activity change, negative = inhibition” value was inactive: -1.04%.

On to `COC(=O)CC1C(C)(C)C(=O)C2CC3=C4CC(=O)OC(c5ccoc5)[C@]4(C)CCC3[C@@]1(C)C2=O` (some centres undefined), for which the “activity change, negative = inhibition” value was inactive: -10.4%.

For `COc1cc(NS(=O)(=O)c2ccc(N)cc2)ncn1`, the activity change, negative = inhibition entry was “inactive”.

On to `O=C(c1cc(C(F)(F)F)cc(C(F)(F)F)c1)N1CCC[C@@]2(CCN(c3ncccn3)C2)C1`, for which the “activity change, negative = inhibition” value was inactive: 11%.
